Values joined by “and” are separate entries in the source; they are usually repeats but may differ in a detail not shown here. Equal entries are not always repeated. Screen size: about 230,000 compounds; about 3,600 (1.6%) were called active. The shares of active, inactive and inconclusive entries below differ from those in the screen. The call rests on the fitted dose curve; in most records, active means well fitted inhibition curve with a large enough effect (not every such curve was filed as active); inconclusive means small, poorly fitted or top-dose-only effect, or another doubt; inactive means no such curve, though single readings can be large or run the other way. Where the call is inconclusive, the potency comes from a doubtful curve fit.
The molecules below were run against Lysine-specific demethylase 4E (Homo sapiens) (UniProt B2RXH2) (assay: qHTS Assay for Inhibitors of Human Jumonji Domain Containing 2E (JMJD2E)). Conditions: JMJD2E catalytic domain, FDH-coupled NADH fluorescence (FDH is formaldehyde dehydrogenase); series mostly up to 57.1 µM.
UniProt B2RXH2, sequence (B2RXH2 whole entry, looked up, the tested form may be a part): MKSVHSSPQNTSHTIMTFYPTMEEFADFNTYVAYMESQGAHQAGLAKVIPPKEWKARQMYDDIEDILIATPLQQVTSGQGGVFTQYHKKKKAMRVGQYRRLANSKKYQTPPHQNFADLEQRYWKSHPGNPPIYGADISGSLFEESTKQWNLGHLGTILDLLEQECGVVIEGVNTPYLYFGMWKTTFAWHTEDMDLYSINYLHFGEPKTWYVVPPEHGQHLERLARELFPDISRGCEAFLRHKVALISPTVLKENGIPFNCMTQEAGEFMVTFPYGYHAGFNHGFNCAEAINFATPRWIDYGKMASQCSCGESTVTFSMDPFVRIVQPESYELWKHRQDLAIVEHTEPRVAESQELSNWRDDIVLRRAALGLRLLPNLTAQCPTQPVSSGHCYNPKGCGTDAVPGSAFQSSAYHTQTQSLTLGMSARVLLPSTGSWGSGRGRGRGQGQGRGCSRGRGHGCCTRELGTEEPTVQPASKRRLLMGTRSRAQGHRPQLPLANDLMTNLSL
Further: nearly all actives have a fitted effect of over 50% in size.
Potency means the concentration at half of the fitted maximal effect; tags describe the fitted curve by direction and shape.

Structure (SMILES)	Potency
COc1cc(C(=O)Nc2ccc3oc(-c4cccnc4)nc3c2)cc(OC)c1OC	inconclusive: 31.6 µM [inhibitor, partial curve]
C=CCn1c(=NC(=O)C2CC2)sc2cc(NC(C)=O)ccc21	inconclusive: 20 µM [inhibitor, partial curve]
CCOC1(OCC)N=C(N)C2(C#N)C(c3ccc(NC(C)=O)cc3)C12C#N (stereo not drawn)	inconclusive: 25.1 µM [inhibitor, single point]
O=S(=O)(Cc1ccco1)Cc1nc(-c2ccc(Cl)cc2)cs1	inactive
O=C(COc1cccc(F)c1)N[C@@H](Cc1ccccc1)c1nc2ccccc2[nH]1	inactive
COC(=O)c1cnc(Oc2ccc(NC(=O)NC(=O)c3c(OC)cccc3OC)cc2)cc1C(F)(F)F	inconclusive: 39.8 µM [inhibitor, single point]
Cc1sc2nc(SCC(=O)Nc3c(C)n(C)n(-c4ccccc4)c3=O)n(C)c(=O)c2c1C	inactive
Cc1c(C(=O)NC(=S)Nc2ccccc2N2CCCC2)cccc1[N+](=O)[O-]	inconclusive: 39.8 µM [inhibitor, single point]
O=C1NC2=C(CCc3ccccc32)C(c2ccccc2)N1 (stereo not drawn)	inconclusive: 31.6 µM [inhibitor, single point]
Cc1ccc(/C(O)=C2/C(=O)C(=O)N(CCN3CCOCC3)C2c2cccnc2)cc1 (stereo not drawn)	inconclusive: 39.8 µM [inhibitor, single point]
CCCOc1cccc(-c2cc(C(=O)NN)c3ccccc3n2)c1	active: 11.2 µM
O=C(NC(=S)N(CCCCO)C1CCCCC1)c1sc2ccccc2c1Cl	inactive
COc1cccc(C2CC(=O)N3CN(c4ccccc4F)CSC3=C2C#N)c1 (stereo not drawn)	inconclusive: 39.8 µM [inhibitor, single point]
CCOc1cc(C2C3=C(CC(C)(C)CC3=O)Nc3n[nH]c(C)c32)ccc1O (stereo not drawn)	inconclusive: 28.2 µM [inhibitor, single point]
COc1ccccc1/C=C/C=N/NC(=O)c1ccccn1	inconclusive: 28.2 µM [inhibitor, single point]
O=C(Nc1cccc2cccnc12)c1ccc2c(c1)OCCO2	inconclusive: 39.8 µM [inhibitor, single point]
CCO[C@H]1OC(C(=O)N2CCN(Cc3ccc4c(c3)OCO4)CC2)=C[C@@H](c2cn(C(C)=O)c3ccccc23)[C@@H]1CCCO	inactive
Cc1cccc(/C=N/n2c(-c3ccncc3)n[nH]c2=S)c1	inconclusive: 31.6 µM [inhibitor, single point]
Cc1nn(C)c(Oc2ccc(Cl)cc2)c1C(=O)O	inconclusive: 39.8 µM [inhibitor, single point]
Nc1nnnn1/N=C/c1ccccc1OCc1ccc(Cl)cc1	inconclusive: 39.8 µM [inhibitor, single point]
O=[n+]1c2c(n([O-])c3cc(F)c(N4CCCC4)cc31)CCCC2	inconclusive: 39.8 µM [inhibitor, single point]
S=c1[nH]nc(-c2cc(-c3ccccc3)n[nH]2)n1/N=C/c1ccc(Br)s1	inactive
Fc1ccc(C(c2nnnn2Cc2cccs2)N2CCN(c3ccccc3)CC2)cc1 (stereo not drawn)	inactive

Structure (SMILES)	Potency
CCN(CC)c1ccc(C(=O)N/N=C/c2ccc(N3CCOCC3)cc2)cc1	inconclusive: 25.1 µM [inhibitor, partial curve]
O=C(Cc1nc(=O)c2ccccc2s1)Nc1ccccc1	inconclusive: 39.8 µM [inhibitor, single point]
CC1CCC(C(=O)NC(C(=O)N2CCc3ccccc3C2)C(C)C)CC1 (stereo not drawn)	inactive
CSc1ccccc1NC(=O)CSCc1ccccc1Br	inconclusive: 39.8 µM [inhibitor, single point]
CCOc1cccc(NC(=O)Cn2nc(-c3ccc4c(c3)OCCO4)ccc2=O)c1	inconclusive: 35.5 µM [inhibitor, single point]
Oc1ccc(N=Nc2n[nH]c(-c3ccc(Br)cc3)n2)cc1	inactive
COc1ccc(/C=C/C(=O)Oc2cc(C)[nH]c(=O)c2[N+](=O)[O-])cc1OC	inconclusive: 25.1 µM [inhibitor, single point]
COc1ccc2[nH]c3c4c(ccc3c2c1)C(=O)C=CC4=O	inconclusive: 0.794 µM [inhibitor, full curve, poor fit]
COc1ccc(-c2csc(Cc3nnc4n3CCCCC4)n2)cc1	inactive
COCCCNC(=O)c1cc(C)nc2ccc(F)cc12	inconclusive: 28.2 µM [inhibitor, single point]
COCCCn1c(SCc2cccc(OC)c2)nc2cc(OC)c(OC)cc2c1=N	inconclusive: 28.2 µM [inhibitor, single point]
CC(=O)c1c(C)n([O-])c2cc(C)ccc2[n+]1=O	inconclusive: 25.1 µM [inhibitor, single point]
COC(=O)c1nc2cc(C)ccn2c1F	inconclusive: 31.6 µM [inhibitor, partial curve]
Cc1cc(C)n2nc(C(=O)N3CCCC(CNS(=O)(=O)c4cccs4)C3)cc2n1 (stereo not drawn)	inconclusive: 20 µM [inhibitor, partial curve]
O=C(NCc1ccccn1)c1cc(-c2ccc(Br)cc2)nc2ccccc12	inconclusive: 35.5 µM [inhibitor, single point]
CN(C)Cc1ccccc1-c1nc(N(C)Cc2ccco2)c2ccccc2n1	inconclusive: 39.8 µM [inhibitor, single point]
CCOc1ccc(NC(=O)C2=C(C)C(=O)OC23CCC(C)CC3)cc1 (stereo not drawn)	inconclusive: 35.5 µM [inhibitor, single point]
C[C@@H]1COc2c(N3CCN(C)CC3)c(F)cc3c(=O)c(C(=O)O)cn1c23	inconclusive: 5.01 µM [inhibitor, full curve]
COc1ccc(C2CC(=O)C3=C(C2)Nc2ccccc2NC3c2coc3ccccc3c2=O)cc1OC (stereo not drawn)	inactive
O=C(Nc1ccc(OCC(F)(F)C(F)F)c(C(F)(F)F)c1)c1ccccc1O	inconclusive: 35.5 µM [inhibitor, single point]
Cc1ccccc1N1C(S)=C(C#N)C(=O)NC1c1ccco1 (stereo not drawn)	inactive
Cc1cc2nnc(SC3CCCCN(C(=O)c4ccc(F)cc4)C3=O)n2c2ccccc12 (stereo not drawn)	inconclusive: 28.2 µM [inhibitor, partial curve]
CCN(CCN(C)C)C(=O)c1ccc2c(c1NCCO)C(=O)c1ccccc1C2=O	inconclusive: 25.1 µM [inhibitor, partial curve]

Structure (SMILES)	Potency
CSC(=N)N	inactive and inconclusive: 39.8 µM [inhibitor, single point]
O=C(C1CCN(S(=O)(=O)N2CCC3(CC2)OCCO3)CC1)N1CCCCC1	inactive
CCOc1ccc2nc(NCCCNC(=O)c3cc(OC)c(OC)c(OC)c3)c(C#N)cc2c1	inconclusive: 31.6 µM [inhibitor, partial curve]
CCOc1cc(/C=N/NC(=O)c2cc(C)n(-c3ccc(F)cc3)c2C)ccc1O	inconclusive: 31.6 µM [inhibitor, single point]
CCCOc1c(Br)cc(C2C3=C(CCCC3=O)N(CC)C3=C2C(=O)CCC3)cc1OC	inconclusive: 31.6 µM [inhibitor, partial curve]
CC(C)Cc1[nH]c(=O)c(C#N)c2c1COC(C)(C)C2	inconclusive: 35.5 µM [inhibitor, partial curve]
CCc1cc2cc(OC)ccc2nc1SCC(=O)Nc1cc(OC)c(OC)cc1C(=O)O	inconclusive: 25.1 µM [inhibitor, partial curve]
c1ccc2c(c1)nc(CN1CCOCC1)n1c3ccccc3nc21	inconclusive: 35.5 µM [inhibitor, single point]
CCOC(=O)/C(C#N)=C/c1ccc(OC(=O)c2ccccn2)cc1	inconclusive: 11.2 µM [inhibitor, partial curve]
COc1ccc2cnoc(=O)c2c1OC	inconclusive: 8.91 µM [inhibitor, partial curve]
O=C(Nc1ccc(-c2nc3cccnc3s2)cc1)C1CCCO1 (stereo not drawn)	inconclusive: 31.6 µM [inhibitor, partial curve]
Cc1c(C)c2ccc(OCC(=O)N3CCOCC3)c(C)c2oc1=O	inconclusive: 31.6 µM [inhibitor, partial curve]
COc1ccc(N=C2NC(=O)S/C2=C\c2ccc(N(C)C)cc2)cc1	inactive
O=C(Cn1cccc1C(=O)c1ccccc1)NCCC1=CCCCC1	inconclusive: 39.8 µM [inhibitor, single point]
CCOC(=O)c1ccc(-n2c(CN3CCC(O)CC3)nc3ccc([N+](=O)[O-])cc3c2=O)cc1	inactive
Cc1nn(Cc2ccccc2Cl)c2sc(C(=O)NC(C)(C)C)cc12	inactive
CC1CCCN(C(c2cccs2)c2nnnn2Cc2ccccc2)C1 (stereo not drawn)	inactive
O=C(/C=C/c1cnc2ccccc2n1)NC1CCCCCC1	inconclusive: 7.08 µM [inhibitor, single point]
c1ccc(-c2ccc(CN3C[C@@H]4C(c5ccccc5)C5(c6ccccc6)CC4(C5)[C@H]3c3ccccc3)cc2)cc1 (stereo partly drawn)	inconclusive: 39.8 µM [inhibitor, single point]
CCOc1ccccc1C=Nc1ccccc1C(=O)Nc1ccccc1	inconclusive: 12.6 µM [inhibitor, partial curve]
COC(=O)c1ccc(Nc2cc(C)nc3ccccc23)cc1	inconclusive: 39.8 µM [inhibitor, single point]
O=C1c2ccccc2C(=O)N1Cc1ccco1	inactive
